# About 64,000 (15%) of roughly 420,000 compounds were called active. The inconclusive results got no clear call from the source; some entries with a clear call stand among them for comparison. Calls come from the whole dose curve; as a rule, active = well fitted inhibition curve with a large enough effect; inconclusive = small, poorly fitted or top-dose-only effect; inactive = flat fitted curve, though single readings scatter. No potency is given beside an inconclusive call; the fits are too rough.
# Assay: qHTS for Inhibitors of human tyrosyl-DNA phosphodiesterase 1 (TDP1): qHTS in cells in absence of CPT; note: nearly all actives have a fitted effect of over 55% in size
# Details: DT40 Tdp1-/- hTDP1 cells, no CPT, ATP luminescence, 48 h; activity change, negative = growth inhibition: at 46.2 µM (top of the series) unless noted
# Procedure, shortened: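 Compound effects on proliferation are scored in DT40 Tdp1-/-;hTDP1 cells in the absence of CPT. ATP levels (CellTiter-Glo luminescence) are recorded after a ≥48 hr, 37 °C incubation.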
# % is set by controls: 0 for no effect and ±100 for the full control effect; potency is the fitted concentration of half-maximal effect; tags give direction and shape of the fitted curve.
Structure (SMILES),"activity change, negative = growth inhibition",Potency
CCOC(=O)c1ccc(NC(=S)N(CCCN2CCN(CC)CC2)Cc2ccco2)cc1,inactive: -23.1%,
COc1ccc(-c2n[nH]c3c2C(c2ccc(O)cc2)N(c2ccc(Br)cc2)C3=O)cc1 (stereo not drawn),,"inconclusive [inhibitor, single point]"
COc1ccc(N2CCC(CNC(=S)Nc3cc(C)cc(C)c3)C2)cc1 (stereo not drawn),,active: 14.6 µM
CCN(CC)S(=O)(=O)c1ccc(OC)c(NC(=O)COc2ccc3c(C)cc(=O)oc3c2)c1,inactive: -2.85%,
C=CCn1c(SCCCc2ccccc2)nc2c1c(=O)[nH]c(=O)n2C,,active: 25.9 µM
S=C(NCCCCc1ccccc1)NCc1ccccc1,inactive: 6.13%,
Cc1ccc(NC(=O)C2CCCN2S(=O)(=O)c2ccc(F)cc2)c(C)c1 (stereo not drawn),inactive: -30%,
CCCCCn1c(CNC(=O)c2cccs2)nc2ccccc21,,"inconclusive [inhibitor, single point]"
CCN1CCN(c2ncnc3c2cnn3-c2ccc(C)cc2)CC1,,"inconclusive [inhibitor, single point]"
COc1ccc(N2C(=O)/C(=C\c3ccco3)N=C2SCC(N)=O)cc1Cl,,"inconclusive [inhibitor, single point]"
COc1ccc(OC)c(NC(=O)Cn2c(C)nc3ccccc3c2=O)c1,inactive: -25.6%,
CCOC(=O)c1c(C)[nH]c(C)c1S(=O)(=O)N1CCCC(C(=O)Nc2ccc(F)cc2F)C1 (stereo not drawn),inactive: -27.7%,
COc1cc(C2CC(=O)N(c3ccccc3)C3=C2C(=O)OC3)cc(OC)c1OC (stereo not drawn),inactive: -7.21%,
CCOC(=O)c1c(NC(=S)NC(=O)c2ccc(Cn3cc(Cl)cn3)o2)sc2c1CCCCC2,,"inconclusive [inhibitor, single point]"
CC1CN(c2nc(-c3ccccc3)nc3ccccc23)CC(C)O1 (stereo not drawn),,"inconclusive [inhibitor, single point]"
Cc1ccccc1NC(=O)COc1ccccc1C,inactive: 7%,
C=C1CCN([C@@H](C)C(=O)OCc2ccc(C)cc2)S(=O)(=O)c2ccccc21,,"inconclusive [inhibitor, single point]"
COC(=O)C1=C(C)N(Cc2ccco2)C(=O)/C1=C\c1ccc([N+](=O)[O-])cc1,,"inconclusive [inhibitor, single point]"
COc1ccc(C2NCCc3c2[nH]c2ccccc32)cc1CN1CCc2cc(OC)c(OC)cc2C1C (stereo not drawn),,active: 18.4 µM
COc1ccc(NC(=O)C2(C)Cc3c(-c4ccc5c(c4)OCO5)ccnc3O2)cc1 (stereo not drawn),,active: 2.91 µM
CCOC(=O)[C@]12CCCC=C1N(Cc1ccco1)C(=O)[C@H](CC(=O)NCC13CC4CC(CC(C4)C1)C3)C2,,"inconclusive [inhibitor, single point]"
Clc1ccc2nc(SCc3nnc(-c4ccccc4)o3)[nH]c2c1,,"inconclusive [inhibitor, single point]"
CC(=O)c1cc2c(cc1NC(=O)CSc1nc3ccc(C)cc3[nH]1)OCO2,,"inconclusive [inhibitor, partial curve, poor fit]"
Cc1cc(C(=O)N2CCC(C)(C(=O)NS(=O)(=O)C3CC3)C2)n(C(C)(C)C)n1 (stereo not drawn),inactive: 26.4%,
CCOc1ccc(NC(=O)CSc2cn(CC(=O)N3CCCCCC3)c3ccccc23)cc1,,"inconclusive [inhibitor, single point]"

Structure (SMILES),"activity change, negative = growth inhibition",Potency
CCN(C(=O)CCN1C(=O)/C(=C/c2ccccc2)SC1=S)C1CCS(=O)(=O)C1 (stereo not drawn),,"inconclusive [inhibitor, single point]"
COc1ccc(OCC(=O)Nc2ccccc2N2CCN(C)CC2)cc1,inactive: -22%,
COC(=O)c1ccc(Sc2ccccc2NS(=O)(=O)c2ccc(OC)cc2)nc1,inactive: -28.3%,
CCOc1ccc(NC(=O)CSC2=Nc3ccccc3C3=NC(CC(=O)NCc4ccco4)C(=O)N23)cc1 (stereo not drawn),,active: 23.1 µM
O=C(c1ccc(Cl)c(Cl)c1)N1CCC(=O)N([C@H](COCc2cccc(C(F)(F)F)c2)Cc2ccccc2)CC1,,"inconclusive [inhibitor, single point]"
CCOc1ccccc1NC(=O)C(c1ccccc1)N1CCN(C(=O)c2ccco2)CC1 (stereo not drawn),,"inconclusive [inhibitor, single point]"
COc1ccccc1CNC(=O)c1nn(C)c2c1CS(=O)(=O)c1ccccc1-2,,"inconclusive [inhibitor, single point]"
O=C(NCC1CCC2(CCN(Cc3cccn3-c3ccc(Cl)cn3)CC2)O1)c1ccccc1 (stereo not drawn),inactive: -7.15%,
O=C(c1ccco1)N1N=C(C2CCCCC2)CC1(O)C(F)(F)F (stereo not drawn),inactive: -10.3%,
Cc1cc2ccccc2n1CCNC(=O)c1cccc(Cl)c1,,active: 7.31 µM
COc1ccccc1CNc1ccc(-c2nc(-c3ccncc3)no2)cc1[N+](=O)[O-],inactive: -14.9%,
Cc1cccc(C)c1NC(=O)/C(=C/c1ccco1)c1ccccc1,,active: 13 µM
O=C(C1CCCCC1)N1CCN(S(=O)(=O)c2ccc(Cl)cc2)CC1,,"inconclusive [inhibitor, single point]"
CC(C(=O)N(C)c1ccccc1)N1CCN(C(=O)c2ccccc2)CC1 (stereo not drawn),inactive: -11.8%,
Cc1nn(-c2ccccc2)c(Cl)c1C(=O)N(C)CC(=O)Nc1cccc(F)c1,,"inconclusive [inhibitor, partial curve]"
CCN(CC)c1ccc(/C=C2\NC(=O)NC2=O)cc1,,"inconclusive [inhibitor, single point]"
COc1ccccc1OCC(=O)NC1CC(C)(C)NC(C)(C)C1,inactive: 1.1%,
Cc1ccc([C@H]2C[C@@H](n3cc(COC(=O)c4ccccc4)nn3)[C@H](O)CN2C(=O)C2CCCCC2)cc1,,active: 20.6 µM
O=C(Cc1ccccc1)Nc1ccc(N2CCCCC2)cc1,inactive: 18.1%,
O=C(O)c1cccc(NC(=O)C2C3C=CC(C3)C2C(=O)OCC(F)(F)C(F)F)c1 (stereo not drawn),inactive: 1.66%,
O=C(O)Cc1csc(-c2cccc(F)c2)n1,inactive: 21%,
CCC1CCCCN1C(=O)Cn1c(=O)n(CCC(=O)NCc2ccco2)c(=O)c2sccc21 (stereo not drawn),,"inconclusive [inhibitor, single point]"
COc1ccc(-c2noc(-c3cccc(OC)c3OC)n2)cc1OC,,"inconclusive [inhibitor, single point]"
CCOC(=O)c1cc(CC)sc1NC(=O)C1CC1,,"inconclusive [inhibitor, partial curve]"
CN(CCc1ccccc1)C(=O)c1ccc(NC(=O)Cc2ccc(NC(=O)C3CCN(S(=O)(=O)c4cccc([N+](=O)[O-])c4)CC3)cc2)cc1,,active: 9.2 µM

Structure (SMILES),"activity change, negative = growth inhibition",Potency
Cc1ccc(C(=O)OCC(=O)Nc2ccc3c(c2)OCO3)o1,inconclusive: -32% [inhibitor],
COc1cccc(COC(=O)CSCC(=O)Nc2ccc(C)cc2)c1OC,,"inconclusive [inhibitor, partial curve, poor fit]"
COc1ccc(C(=O)NCc2ccccc2C)cc1S(=O)(=O)NC1CCCC1,inactive: -4.01%,
O=C1c2ccccc2[C@@H]2Cc3csc[n+]3[C@H]12,,active: 5.17 µM
N#Cc1c[nH]n2c(NC3CCCC3)c(-c3cccc(Cl)c3)nc12,,"inconclusive [inhibitor, single point]"
CCNCCNc1ccc(Cl)cc1[N+](=O)[O-],inactive: -6.99%,
Cc1ccc(N(CC(=O)Nc2ccc(C)c(F)c2)S(=O)(=O)c2c(C)n[nH]c2C)cc1,,"inconclusive [inhibitor, single point]"
Cc1ccc2c(Cl)cc(Cl)c(OCC(=O)NCCc3ccccn3)c2n1,,"inconclusive [inhibitor, single point]"
CCOC(=O)C1CCN(C(=O)c2cccc(S(=O)(=O)N3CCc4ccccc43)c2)CC1,,"inconclusive [inhibitor, single point]"
CCOc1cc(C(=O)N2CCc3c([nH]c4ccccc34)C2c2ccccc2)cc(OCC)c1OCC (stereo not drawn),,active: 5.8 µM
CCN(CC)C(=O)CSc1nc(COc2ccccc2)nc2ccccc12,,"inconclusive [inhibitor, single point]"
COc1ccc(OC)c(N(CC(=O)Nc2ccccc2)S(=O)(=O)c2ccccc2)c1,,"inconclusive [inhibitor, single point]"
O=C(O)c1cccc(S(=O)(=O)N2CCc3ccccc3C2)c1,inactive: -3.34%,
O=C(CCCCCn1c(=S)[nH]c2ccccc2c1=O)NCc1ccc2c(c1)OCO2,,"inconclusive [inhibitor, single point]"
O=C(CSc1nnnn1C1CCCC1)Nc1ccc(F)cc1,inactive: -7.1%,
Cc1noc(C)c1S(=O)(=O)N1CCC(C(=O)N2CCN(c3ccc(Cl)cc3)CC2)CC1,,"inconclusive [inhibitor, single point]"
O=C(COC(=O)c1ccc(Cl)c(Cl)c1)NC1CCCC1,inactive: -5.44%,
CCCNC(=O)CSc1ccc(S(=O)(=O)N(C)C2CCCCC2)cn1,,"inconclusive [inhibitor, single point]"
COc1cc(/C=N/n2cnnc2)ccc1Oc1nc(Cl)ncc1F,,"inconclusive [inhibitor, single point]"
Cc1cccc(CCN2CCN=C2Nc2ccccc2)c1,inactive: -25.6%,
Cc1ccc(S(=O)(=O)N2CCN(c3ccc(C(F)(F)F)cc3[N+](=O)[O-])CC2)cc1,,"inconclusive [inhibitor, single point]"
COC(=O)c1ccc2nc(-c3ccccc3)c(Cc3ccccc3OC)n2c1,,active: 16.4 µM
COC(=O)C1(C(=O)OC)C[C@H](/C=C/c2ccccc2)N(Cc2ccccc2OC)[C@@H]1c1ccccc1,,active: 14.6 µM
